Reference: the supplement of paper PMC11417369
This is one part of the list.

Tested on: PfHDP1 homeodomain (GST-tagged)
Experiment: gcPBM binding intensity (ln(normalized median fluorescence intensity)); higher = stronger DNA binding
Summary of the method: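 Alexa488 anti-GST antibody, scanned at 488 nm, detected GST-tagged P. falciparum DNA-binding domains that had been expressed in E. coli and incubated for 1 h on an Agilent 4 × 180k array. The array carried primer-extended double-stranded 36-bp intergenic genomic probes and negative controls. Binding intensity is the highest Masliner-normalised natural-log median intensity across replicate spots of either orientation of each probe.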

First: ACAAGAGAAGTAATTGCACACGTTGTTTCTTTTTCT [CACACA_site35]
Second: TCACTATAGTAATTTACACACATTTGAAGAAAATGT [CACACA_site7626]
The “gcPBM binding intensity (ln)” value of the first is higher: 9.23 for the first, 6.58 for the second.

Compared with “ATTATTTAGAAATGAGCACACAAAAAGAAGAATTTT [CACACA_site7913]”, “TATTTATTTATTTATGCATGCATGAATAATTTTTAC [TGCATGCA_site31]” is lower in “gcPBM binding intensity (ln)” value: 7.06 for the first, 6.73 for the second.

Going from “GAAAACATTAAAAGTTAGATCATAAGAAAAGAATAT [GTGCAC_negctrl_site726]” to “CATATATGTGATAACACGCACACAAATGTATAGAAT [CACACA_site2594]”, the “gcPBM binding intensity (ln)” value rises from 6.62 to 6.81.

Going from “GTTCATCACATATACACATGCATATTCTAATATGTA [TGCATGCA_site809]” to “ACATTATATAAAATATGTACATATAAAAAATTCTAT [XGTACX_site1617]”, the “gcPBM binding intensity (ln)” value falls from 7.25 to 6.63.

Going from “TTATCATTTGGACACGCACACACACCGAAAAAGAAA [CACACA_site8008]” to “AATAATTTAAGGAATACACACAAGAAAAAAATAAGA [CACACA_site60]”, the “gcPBM binding intensity (ln)” value rises from 7.13 to 7.43.

Going from “TTTTTGTAATTATATTAATATATATATATATATATA [CACACA_negctrl_site198]” to “TTTTTTGCTAAAAAGAGTACTAATAAAAAATTTATT [XGTACX_site5235]”, the “gcPBM binding intensity (ln)” value falls from 9.1 to 6.02.

First: ATATTTGTAATTATTAAACACACACTAATTATATAT [CACACA_site8803]
Second: TTTTATGAAAAATGGCTTATCTGTAAAGAAGTGGAG [CACACA_negctrl_site1586]
The “gcPBM binding intensity (ln)” value of the first is higher: 6.72 for the first, 6.59 for the second.

Going from “ATAAAGAAAATATGGAGTACATTTATATCCAATATA [XGTACX_site3085]” to “AAATATATACTACCGATGCACTAAATATAAACACAT [GTGCAC_site9777]”, the “gcPBM binding intensity (ln)” value rises from 6.29 to 7.53.

First: TTAATTTTTGAAGGTACACACTAATATATTAAATAT [CACACA_site4791]
Second: TTATCCCCCTATCATTGTACATTAATACAAACTAAA [XGTACX_site5630]
The “gcPBM binding intensity (ln)” value of the first is lower: 6.62 for the first, 7.64 for the second.

First: AAAATGAAACAAATATGTACACATATAAATATTTCC [XGTACX_site54]
Second: AAAACAGACAAACACACACACACATATATATATATA [CACACA_site3393]
The “gcPBM binding intensity (ln)” value of the first is lower: 6.25 for the first, 9.2 for the second.

Going from “CTTTTAATTATAAAATGTACTTAAAAATAATAATAC [XGTACX_site635]” to “TTTTAAATTTTTTAAAGTACACGTCGAAAAGGTATA [XGTACX_site76]”, the “gcPBM binding intensity (ln)” value rises from 6.2 to 6.99.

Going from “AAGAATTATATATTCACACAAAAAAAAAGTAAAAGA [CACACA_site5335]” to “AATATATTAAATCTTACACACTAAAAAATATGTAAC [CACACA_site4325]”, the “gcPBM binding intensity (ln)” value falls from 6.6 to 5.96.

Going from “TGTTTAACACATGTTTCAAACAAAAAAAAAAAGACA [CACACA_negctrl_site1356]” to “AAAAAAAAAAAAAAGAGTACATTTATTTATATATCT [XGTACX_site2381]”, the “gcPBM binding intensity (ln)” value falls from 6.54 to 6.09.

Going from “TTTTAACATAGAAGTACACACATATAATCAATCATA [CACACA_site5313]” to “TATAATATATATATATGTACATATTATTTACATATA [XGTACX_site7312]”, the “gcPBM binding intensity (ln)” value rises from 6.46 to 6.76.

First: AAATATTTTTTAATTGTTCACTTGGTGGATCATTAA [CACACA_negctrl_site922]
Second: TATCCATTATTTAAAAGTACAAAAAACGATTTACAC [XGTACX_site2979]
The “gcPBM binding intensity (ln)” value of the first is lower: 6.13 for the first, 6.42 for the second.

Going from “TATTATATATATGGAAGTACAGGTATATCGTTTTTC [XGTACX_site3771]” to “TTTTTTTTTCGCTTTTGTACACATTTTATAGAACAG [XGTACX_site2416]”, the “gcPBM binding intensity (ln)” value rises from 6.38 to 7.04.

First: TTTTCCCTTAACCTCTGTACATATAATTTTCTTTCC [XGTACX_site4180]
Second: TTAAAAAAAAATAAAGGTACACGGAGAAATCCTTTT [XGTACX_site7509]
The “gcPBM binding intensity (ln)” value of the first is higher: 7.01 for the first, 6.04 for the second.

First: ATATATTTATTATTAGGTACACATATATATATATAT [XGTACX_site5045]
Second: TGTAGTAATGCTTATTGTACATATACATTTCTTACA [XGTACX_site219]
The “gcPBM binding intensity (ln)” value of the first is higher: 9.29 for the first, 6.57 for the second.

Going from “TTATATAGAATTAATTTCTTTTTTTTCTTTTTTAAA [CACACA_negctrl_site1308]” to “AACCACCACACCATCACACATAAGATTAGACGAGTA [CACACA_site6063]”, the “gcPBM binding intensity (ln)” value rises from 5.83 to 6.71.

First: ATTTTTTTTTTTTTTTCATGAAATTTTTTTTTTTTT [CACACA_negctrl_site1069]
Second: TGCTTTTCTTTTTGCACACTTATGCATATATATATA [CACACA_site2583]
The “gcPBM binding intensity (ln)” value of the first is lower: 5.9 for the first, 10.8 for the second.

Going from “AAATAAGAAAAAGCGCGTACACATAACATTTTTATA [XGTACX_site8807]” to TGTATTCTCTTAGTAGTGCATTTGAAGATTATATAA, the “gcPBM binding intensity (ln)” value rises from 6.32 to 8.81.

Going from TTTATTCAAGGAATAGTGCATAATAATAAGTATTAT to “TCTAATGATATATACACACACATATAGATTTATATA [CACACA_site7044]”, the “gcPBM binding intensity (ln)” value falls from 8.21 to 6.86.

Going from “ATTTTTCTAAAATACTGTACAAAGGTGCATAAAAAG [XGTACX_site4425]” to “TTTTCTGTTTTCATTACACACCTTACAAGAACAATA [CACACA_site2158]”, the “gcPBM binding intensity (ln)” value falls from 11.1 to 7.08.

Compared with “ATATTTATGGAATATACACACATGTATAATTATATA [CACACA_site2033]”, “TAGAATATGTTTAGTTGTACAAAACAAAATGGAATT [XGTACX_site5293]” is lower in “gcPBM binding intensity (ln)” value: 6.51 for the first, 6.39 for the second.

First: ATTTATTTTTTGTGTTCACACATTAGTATCATCTAT [CACACA_site5274]
Second: CACATAAAAAAATAAACACACATATGTATATATATA [CACACA_site3177]
The “gcPBM binding intensity (ln)” value of the first is lower: 6.19 for the first, 7.91 for the second.

Compared with “TAATATATGTATATATGTACATATAAATGTTATAGA [XGTACX_site2721]”, “TTGGTATAAAATTATAGTACATAAGGTAAATATAAA [XGTACX_site4698]” is lower in “gcPBM binding intensity (ln)” value: 6.6 for the first, 6.41 for the second.

Going from “GATGTTCATCACTACACACACAAAGAAATATATATA [CACACA_site2684]” to “TTGTATTTCCTTAGGAGTACACATAAATAAGTAAAT [XGTACX_site6677]”, the “gcPBM binding intensity (ln)” value falls from 6.94 to 6.63.

Compared with “AAAGAAAAAAAATATAAAAAATAAAAAATAAAACAA [CACACA_negctrl_site374]”, “TAAAAATTATATATCACACATATATGTCAGTATACA [CACACA_site4624]” is lower in “gcPBM binding intensity (ln)” value: 6.57 for the first, 6.41 for the second.

Going from “ATTTATATGTGGAGCAGTACGCACTCTCACAATTAA [XGTACX_site7252]” to “CTTCTCTTTTTTATCATGCACTTTTTGTATAATAAT [GTGCAC_site9834]”, the “gcPBM binding intensity (ln)” value rises from 7.14 to 7.84.

Going from “ATCATTTTTAAAGGAACACACAAAAAAAATTAAAAT [CACACA_site4878]” to “ACATATATTATTATATGTACATATATTAATTATATA [XGTACX_site3400]”, the “gcPBM binding intensity (ln)” value falls from 6.76 to 6.34.

Compared with “ACTCTCTTATATTAAACACACATATATATCTGTATA [CACACA_site5489]”, “GTAAAATATATAAAATGTACATATATTATATATATA [XGTACX_site489]” is higher in “gcPBM binding intensity (ln)” value: 7.04 for the first, 7.4 for the second.

Going from “TTTCTTTATTAAAATATTTTACATATATAATATACG [TGCATGCA_negctrl_site564]” to “CATTTAAAAGATAAAACACACATACTAATAAAAAAC [CACACA_site5417]”, the “gcPBM binding intensity (ln)” value rises from 6.98 to 7.17.

Compared with “TATTTCAATATATACCTTTGCTTTTTTAATATACTT [XGTACX_negctrl_site556]”, “AATATAAATAAAAACACACACAATGGTACCTATATA [CACACA_site7688]” is higher in “gcPBM binding intensity (ln)” value: 6.42 for the first, 6.79 for the second.

Going from “TCAATATAAATTAGTTGTACAGTTTTTTTTAATTAT [XGTACX_site6358]” to “AGAATACATATATGAACACACAGAGTTTTAAAAAAT [CACACA_site2735]”, the “gcPBM binding intensity (ln)” value rises from 6.2 to 6.76.

Compared with “TTTAAATAATCTAGGTGTACTTTCCTTTATAAATGT [XGTACX_site7859]”, “AAAAAATCACGACACACACACACACTAAAAAAAAAA [CACACA_site6792]” is higher in “gcPBM binding intensity (ln)” value: 6.07 for the first, 6.76 for the second.

Compared with “ATCAAATAATAGCAAACACACAAAAAATAAAAAAAA [CACACA_site4146]”, “AATGTTTTTTTTTTTTTTTTTTTTTATTTATTGTTA [CACACA_negctrl_site505]” is lower in “gcPBM binding intensity (ln)” value: 6.33 for the first, 6.1 for the second.

First: ATTTTTTGGAAAAGAAGTACAATGGATTTATACGTT [XGTACX_site891]
Second: TAACATATAATATTATGTACATATATACATATATAA [XGTACX_site7467]
The “gcPBM binding intensity (ln)” value of the first is lower: 6.19 for the first, 6.33 for the second.

Compared with “TATAACATAATATAGACACACACATGTACTTATGCC [CACACA_site8547]”, “CACTACATTATGTCATAAATGCATACATAAACATAT [GTGCAC_negctrl_site513]” is higher in “gcPBM binding intensity (ln)” value: 6.37 for the first, 6.66 for the second.

First: TTTATATTTCAATTTTGTGCTTCGCAAATTGAGAGG [TGCATGCA_negctrl_site327]
Second: TATTTGTTTGAATTTTTTTTTTTTTTTTTTTATGTG [CACACA_negctrl_site966]
The “gcPBM binding intensity (ln)” value of the first is higher: 6.13 for the first, 5.89 for the second.

First: TACAGACAGAAATGCACACACATATATATATATATA [CACACA_site2283]
Second: GAAAAGCATAGATGCACACATATATATATATATATA [CACACA_site2169]
The “gcPBM binding intensity (ln)” value of the first is higher: 9.96 for the first, 9.77 for the second.

Going from “GTGTTAATTTTAAATTGTACAAAATTTATATGATTT [XGTACX_site348]” to “ATTTTTATACGTTTTTTTTTTTTTTTTTTTTATTTA [CACACA_negctrl_site1142]”, the “gcPBM binding intensity (ln)” value falls from 6.4 to 6.05.

First: ATTAATTTTGGTTCATGTACATAAGAAATAAACTCT [XGTACX_site4534]
Second: TTACACATATATATAAATATATATAAATATATATAT [CACACA_negctrl_site150]
The “gcPBM binding intensity (ln)” value of the first is lower: 6.48 for the first, 7.39 for the second.

Going from “AAAATATATGAAAACAGTACATATAAAAATTAAAAA [XGTACX_site2594]” to “ATATACTTTTTTTTTTTTTTTTTAACGTTATTTATG [CACACA_negctrl_site1277]”, the “gcPBM binding intensity (ln)” value falls from 6.41 to 6.13.

First: AAGAAAGACATTACGTGTACCAAACAACCTACCAAC [XGTACX_site4219]
Second: AAAATTAAACTCACACCACACACAAAAAAAAAAAAA [CACACA_site8131]
The “gcPBM binding intensity (ln)” value of the first is higher: 6.79 for the first, 6.32 for the second.
